# Hit rate of the full screen: of about 39,000 compounds, about 220 (0.56%) showed activity. Some of the results follow.
# Tested on: Escherichia coli K-12 BW25113
# Assay: relative growth (OD600 normalised to plate interquartile mean) (fraction); higher = less growth inhibition, active = 0.2 or less
# Conditions: 50 µM; LB; incubation time: overnight (16-24 h)
# 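Further: static incubation at 37 °C against the wild-type strain, values averaged over two biological replicates.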
row,Structure (SMILES),relative growth
1,C[C@@H]1CCCCO[C@@H](CN(C)C(=O)Nc2ccccc2)[C@@H](C)CN([C@H](C)CO)C(=O)c2cc(NC(=O)CCC(F)(F)F)ccc2O1,inactive: 0.997
2,Cc1ccc(S(=O)(=O)Nc2ccc3c(c2)C(=O)N([C@H](C)CO)C[C@H](C)[C@H](CN(C)Cc2ccccc2)OCCCC[C@H](C)O3)cc1,inactive: 1.02
3,O=C(N[C@@H]1CC[C@@H](CCn2cc(C3(O)CCCC3)nn2)O[C@@H]1CO)C1CCOCC1,inactive: 0.985
4,C[C@H]1CN([C@@H](C)CO)C(=O)c2cc(-c3ccc(C(=O)N(C)C)cc3)cnc2O[C@H]1CN(C)C(=O)c1cccnc1,inactive: 1.04
5,O=C(C[C@@H]1CC[C@H]2[C@@H](COC[C@@H](O)CN2S(=O)(=O)c2ccccc2)O1)N1CCOCC1,inactive: 0.98
6,C[C@@H]1CN([C@H](C)CO)C(=O)c2cccc(NC(=O)c3nc4ccccc4s3)c2O[C@@H]1CN(C)C(=O)Nc1ccc(F)cc1,inactive: 1.02
7,COc1ccc(C(=O)Nc2ccc3c(c2)C(=O)N(C)[C@H]2CC[C@@H](CC(=O)NCC4CC4)O[C@@H]2CO3)cc1,inactive: 0.979
8,C[C@@H]1CCCCO[C@@H](CN(C)Cc2ccc(Cl)c(Cl)c2)[C@H](C)CN([C@@H](C)CO)C(=O)c2cc(NS(=O)(=O)c3ccc(F)cc3)ccc2O1,inactive: 1.06
9,C[C@@H]1CN([C@@H](C)CO)C(=O)c2cc(NC(=O)Nc3ccccc3)ccc2O[C@@H](C)CCCCO[C@@H]1CN(C)C(=O)Nc1ccccc1,inactive: 1.01
10,C[C@H]1CN([C@@H](C)CO)C(=O)Cc2cc(NC(=O)Cc3ccccc3)ccc2O[C@@H]1CN(C)S(C)(=O)=O,inactive: 1.02
11,CC1(C)C(C(=O)O)N2C(=O)CC2S1(=O)=O (stereo unspecified),inactive: 0.358
12,CN1C[C@@H](O)COC[C@@H]2O[C@H](CC(=O)N3CCN(c4ccccc4)CC3)CC[C@H]21,inactive: 1.02
13,CC(C)N1C(=O)C[C@@](C(=O)NCCN2CCOCC2)(c2ccc([N+](=O)[O-])cc2)[C@H]1c1ccc(CO)cc1,inactive: 0.895
14,C[C@@H]1CCCCO[C@@H](CN(C)Cc2ccncc2)[C@@H](C)CN([C@@H](C)CO)C(=O)c2cc(NC(=O)C3CCCCC3)ccc2O1,inactive: 0.985
15,C[C@@H]1CCCCO[C@H](CN(C)S(=O)(=O)c2cccs2)[C@@H](C)CN([C@H](C)CO)C(=O)c2cc(NC(=O)CCC(F)(F)F)ccc2O1,inactive: 0.992
16,O=C(C[C@H]1C=C[C@H](NC(=O)c2cccnc2)[C@H](CO)O1)NCCN1CCCCC1,inactive: 1.01
17,Nc1ncnc2c1c(I)cn2[C@H]1O[C@@H](CO)[C@@H](O)[C@@H]1O,inactive: 0.926
18,CCOC(=O)Cn1c(=O)c2c(OC)ccnc2n(C)c1=O,inactive: 0.971
19,O=C1NC(=S)N/C1=C\c1ccco1,inactive: 1
20,COCC(=O)N1C[C@@H](C)[C@@H](OC)CN(C)C(=O)c2cc(NC(=O)Nc3cccc(F)c3)ccc2OC[C@H]1C,inactive: 0.986
21,COCC#Cc1ccc2c(c1)O[C@@H](CN(C)C(=O)Nc1ccccc1F)[C@@H](C)CN([C@H](C)CO)S2(=O)=O,inactive: 0.995

row,Structure (SMILES),relative growth
1,C[C@H]1CN([C@@H](C)CO)C(=O)c2cc(NS(=O)(=O)c3ccccc3)ccc2O[C@@H]1CN(C)S(C)(=O)=O,inactive: 0.998
2,C[C@@H]1CN([C@H](C)CO)C(=O)c2cc(NC(=O)Nc3ccccc3)ccc2O[C@H]1CN(C)S(C)(=O)=O,inactive: 1
3,Cc1ccc(CNc2ccccn2)o1,inactive: 1
4,O=C1COC2(CCN(C(=O)c3ccno3)CC2)CN1,inactive: 1
5,C[C@@H]1CN([C@@H](C)CO)C(=O)c2cc(NC(=O)Cn3cnnn3)ccc2O[C@H]1CN(C)C(=O)Nc1ccccc1,inactive: 0.987
6,C=CCOC(=O)[C@H]1[C@@H]2C(=O)O[C@@H](c3ccccc3)[C@@H](c3ccccc3)N2[C@@H](c2ccc(OCCOC(=O)[C@H]3C[C@H]4C(=O)N[C@@H](CC(C)C)C(=O)N4[C@H]3c3cccc(OCCO)c3)cc2)[C@]12C(=O)Nc1ccc(I)cc12,inactive: 1.06
7,C[C@@H]1CN([C@H](C)CO)C(=O)Cc2cc(NC(=O)CCN3CCOCC3)ccc2O[C@H]1CN(C)Cc1ccc(C(=O)O)cc1,inactive: 1.03
8,CCN(CC)CCOCCOC(=O)C1(c2ccccc2)CCCC1.O=C(O)CC(O)(CC(=O)O)C(=O)O,inactive: 1.08
9,Cc1noc(C)c1S(=O)(=O)N(C)C[C@@H]1Oc2ccc(NS(=O)(=O)c3cccs3)cc2CC(=O)N([C@H](C)CO)C[C@H]1C,inactive: 0.964
10,Cc1cc(C)n(N)c(=O)c1C(=O)O,inactive: 1.05
11,C[C@@H]1CCCCO[C@H](CN(C)Cc2ccc3c(c2)OCO3)[C@@H](C)CN([C@@H](C)CO)C(=O)c2cc(NC(=O)Nc3cccc4ccccc34)ccc2O1,inactive: 0.979
12,C[C@@H]1CCCCO[C@@H](CN(C)C(=O)Nc2ccc(C(F)(F)F)cc2)[C@@H](C)CN([C@H](C)CO)C(=O)c2cc(NC(=O)C3CCCCC3)ccc2O1,inactive: 0.993
13,O=C(Nc1ccc(C(F)(F)F)cc1)Nc1ccc2c(c1)[C@@H]1C[C@@H](CC(=O)N3CCc4ccccc4C3)O[C@H](CO)[C@@H]1O2,inactive: 1.04
14,COc1ccc(NC(=O)N(C)C[C@@H]2Oc3c(NC(=O)c4ccc(-c5nccs5)cc4)cccc3C(=O)N([C@H](C)CO)C[C@@H]2C)cc1,inactive: 0.996
15,CC(C)(CO)[C@H](O)C(=O)NCCC(=O)NCCSSCCNC(=O)CCNC(=O)[C@H](O)C(C)(C)CO,inactive: 0.988
16,C[C@H](CO)N1C[C@H](C)[C@H](CN(C)S(=O)(=O)c2cn(C)cn2)Oc2c(NS(=O)(=O)c3ccc(F)cc3)cccc2C1=O,inactive: 0.984
17,C[C@@H]1CN([C@H](C)CO)C(=O)c2cc(NS(=O)(=O)c3ccc(F)cc3)ccc2O[C@H]1CN(C)Cc1ccc(-c2ccccc2)cc1,inactive: 0.981
18,CCS(=O)(=O)NCCc1csc(C)n1,inactive: 0.963
19,C[C@H]1CCCCO[C@@H](CN(C)Cc2ccncc2)[C@@H](C)CN([C@@H](C)CO)C(=O)c2cc(NC(=O)C3CCCCC3)ccc2O1,inactive: 0.976
20,COc1ccccc1C#Cc1cnc2c(c1)C(=O)N([C@@H](C)CO)C[C@H](C)[C@@H](CN(C)C(=O)CN(C)C)O2,inactive: 1.04
21,C[C@H](CO)N1C[C@H](C)[C@H](CN(C)Cc2ccc(C(F)(F)F)cc2)Oc2c(NC(=O)C3CCCCC3)cccc2C1=O,inactive: 0.956

row,Structure (SMILES),relative growth
1,C[C@@H]1CN([C@H](C)CO)C(=O)Cc2cc(NS(=O)(=O)c3ccccc3)ccc2O[C@H]1CN(C)Cc1ccc2c(c1)OCO2,inactive: 1
2,COc1ccc(NC(=O)N(C)C[C@@H]2OCCCC[C@@H](C)Oc3ccc(NS(=O)(=O)c4ccc(F)cc4)cc3C(=O)N([C@@H](C)CO)C[C@H]2C)cc1,inactive: 1.03
3,C[C@@H]1CN([C@@H](C)CO)C(=O)c2cc(-c3cccnc3)cnc2O[C@H]1CN(C)Cc1ccc(-c2ccccc2)cc1,inactive: 1.03
4,Cc1noc(C)c1S(=O)(=O)Nc1ccc2c(c1)C(=O)N([C@@H](C)CO)C[C@H](C)[C@@H](CN(C)Cc1ccc(-c3ccccc3)cc1)O2,inactive: 0.979
5,C[C@H](CO)N1C[C@H](C)[C@@H](CN(C)C(=O)C2CCOCC2)Oc2cc(-c3ccc(C(=O)N(C)C)cc3)ccc2S1(=O)=O,inactive: 0.974
6,CCC(=O)Nc1ccc2c(c1)C(=O)N(C)C[C@@H](OC)[C@H](C)CN(Cc1ccc(-c3ccccn3)cc1)[C@H](C)CO2,inactive: 0.995
7,COc1ccc(CN(C)C[C@H]2Oc3ccc(NC(=O)CCN4CCOCC4)cc3C(=O)N([C@@H](C)CO)C[C@@H]2C)cc1,inactive: 1
8,CC(=O)N(O)CCCCCNC(=O)CCC(=O)N(O)CCCCCNC(=O)CCC(=O)N(O)CCCCCN,inactive: 0.769
9,CC(C)(C)c1cc(C(C)(C)C)n(-c2ccc(-n3cccc3)cc2)n1,inactive: 1.03
10,CO[C@@H]1CN(C)C(=O)c2cc(NC(=O)C3CC3)ccc2OC[C@@H](C)N(C(=O)CN2CCOCC2)C[C@@H]1C,inactive: 1.01
11,COc1ccc(NC(=O)Nc2ccc3c(c2)C(=O)N([C@@H](C)CO)C[C@H](C)[C@@H](CN(C)C(=O)c2ccccc2)OCCCC[C@H](C)O3)cc1,inactive: 1.03
12,Cn1cccc1C(=O)NCc1cn2c(n1)CN(S(C)(=O)=O)CC2,inactive: 1.01
13,Cc1ccc(S(=O)(=O)Nc2ccc3c(c2)C(=O)N([C@@H](C)CO)C[C@H](C)[C@@H](CN(C)C(=O)Nc2ccccc2)OCCCC[C@H](C)O3)cc1,inactive: 1.05
14,N[C@H](CO)C(=O)O,inactive: 0.998
15,C[C@@H]1CN([C@H](C)CO)S(=O)(=O)c2ccc(C#CC3(O)CCCC3)cc2O[C@H]1CN(C)C(=O)Cc1cccnc1,inactive: 1.03
16,COc1ccc(N(C(=O)CSc2ncccn2)[C@@H](C(=O)NCCc2ccccc2)c2cccs2)cc1Cl,inactive: 1.03
17,COc1cccc(Nc2ncnn3ccc(CN4CC[C@@H](N)[C@H](O)C4)c23)c1,inactive: 1.07
18,C[C@@H](O)C#Cc1ccc2c(c1)O[C@@H](CN(C)C(=O)c1ccccc1)[C@@H](C)CN([C@@H](C)CO)S2(=O)=O,inactive: 1.01
19,C[C@@H]1CN([C@@H](C)CO)C(=O)c2cc(NC(=O)Cc3ccccc3)ccc2O[C@@H](C)CCCCO[C@H]1CN(C)S(=O)(=O)c1ccc(Cl)cc1,inactive: 1.02
